Here are results for 44 compounds from article PMC4336329 (PLoS ONE, 2015).

Each structure is given as a SMILES string. Out of some 310,000 compounds screened, about 14,000 (4.5%) showed an effect of 50% or more. Effects have a minus sign here. The list shows a part of the results.
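Also: peak tail current of the secondary pulse compared with the same well before compound.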

For the assay, the target named is human ether-à-go-go-related gene (hERG) potassium channel (human, UniProt Q12809). As to the kind of experiment: primary screen, population patch clamp on CHO cells stably expressing hERG.
human ether-à-go-go-related gene (hERG) potassium channel, sequence (Q12809 whole entry, looked up): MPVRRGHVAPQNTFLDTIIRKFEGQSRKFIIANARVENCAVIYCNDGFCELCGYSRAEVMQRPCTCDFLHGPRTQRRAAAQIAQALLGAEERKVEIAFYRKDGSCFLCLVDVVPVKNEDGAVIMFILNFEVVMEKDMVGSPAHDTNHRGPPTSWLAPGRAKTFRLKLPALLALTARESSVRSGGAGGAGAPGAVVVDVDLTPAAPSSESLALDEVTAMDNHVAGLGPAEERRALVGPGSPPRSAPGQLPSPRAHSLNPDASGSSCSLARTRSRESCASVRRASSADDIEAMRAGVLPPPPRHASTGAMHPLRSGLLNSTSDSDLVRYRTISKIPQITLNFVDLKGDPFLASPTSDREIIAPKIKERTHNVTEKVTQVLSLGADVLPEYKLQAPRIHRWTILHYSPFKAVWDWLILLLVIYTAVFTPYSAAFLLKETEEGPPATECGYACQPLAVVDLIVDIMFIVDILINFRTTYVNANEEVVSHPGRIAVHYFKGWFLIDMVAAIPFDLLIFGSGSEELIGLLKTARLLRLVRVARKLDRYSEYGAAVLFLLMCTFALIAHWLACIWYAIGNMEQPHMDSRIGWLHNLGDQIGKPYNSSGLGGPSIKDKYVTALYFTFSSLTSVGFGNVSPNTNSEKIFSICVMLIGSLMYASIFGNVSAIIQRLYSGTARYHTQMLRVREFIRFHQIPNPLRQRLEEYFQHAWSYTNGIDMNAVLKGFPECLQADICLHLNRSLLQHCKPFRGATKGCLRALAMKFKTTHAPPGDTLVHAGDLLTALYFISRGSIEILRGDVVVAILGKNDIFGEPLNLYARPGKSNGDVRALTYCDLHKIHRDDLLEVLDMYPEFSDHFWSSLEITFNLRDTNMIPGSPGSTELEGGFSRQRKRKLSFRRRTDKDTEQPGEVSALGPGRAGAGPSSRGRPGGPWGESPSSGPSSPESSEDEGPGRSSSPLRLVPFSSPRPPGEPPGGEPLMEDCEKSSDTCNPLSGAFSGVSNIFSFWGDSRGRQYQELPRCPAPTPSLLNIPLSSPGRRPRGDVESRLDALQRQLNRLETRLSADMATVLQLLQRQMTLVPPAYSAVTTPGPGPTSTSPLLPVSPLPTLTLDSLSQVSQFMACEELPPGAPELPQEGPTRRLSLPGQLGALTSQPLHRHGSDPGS
In the case of `C/C(=N/NC(=O)c1ccoc1C)c1cccc(NC(=O)C2CC2)c1`, the “hERG current change (%, negative = inhibition) at 10uM” value is -11.4%.
As for `O=C(O)c1ccc(N2C(=O)CC(N3CCN(c4cccc(C(F)(F)F)c4)CC3)C2=O)cc1` (centres unmarked), the “hERG current change (%, negative = inhibition) at 10uM” value was -4.83%.
To `Cc1ccc(C)c(NC(=S)N(C)CCO)c1` belongs 23.1%; to `O=C(NCCN1CCOCC1)c1cccc(Cl)c1`, -1.9%.
To `CC(=O)Nc1ccc(NC(=O)C/C(C)=N/NC(=O)C(=O)N2CCCC2)cc1` belongs 20.2%; to `CCn1nc(C(=O)NNC(=O)CCOc2cc(C)ccc2C)c2ccccc2c1=O`, -77.6%; to `Cc1onc(-c2ccccc2)c1C(=O)NNC(=O)c1ccccc1`, -1.54%.
Take `N#C/C(=C/c1ccc(-c2ccc(S(N)(=O)=O)cc2)o1)C(=O)Nc1ccccc1`: the “hERG current change (%, negative = inhibition) at 10uM” value worked out at 7.21%.
For the compound `CC(C)(C)c1ccc(C(=O)NC2CCS(=O)(=O)C2)cc1` (centres unmarked), the “hERG current change (%, negative = inhibition) at 10uM” value is reported as -7.82%.
For `COc1ccc(C(C(=O)NC2CCCC2)N(C(=O)c2ccoc2C)c2ccc(C)c(C)c2)cc1` (centres unmarked) the value was 15.1%; for `Cc1nn2cc(-c3ccc(Cl)cc3)cnc2c1Cl`, 6.09%; for `CCCC/C=C/C(NC(=O)c1ccc(C(=O)OC)cc1)c1ccccc1` (centres unmarked), 7.8%.
To `COCCNC(=O)c1ccc2c(Cl)c3c(nc2c1)CCC3` belongs -30.2%; to `O=C(CSc1ncn(-c2ccccc2)n1)Nc1nc2c(s1)CCCC2`, -37.2%; to `COC(=O)C1=NN(C(C)=O)C2(CC(=O)N(c3cccc(C)c3)C2=O)C1` (centres unmarked), 4.44%.
Turning to `O=c1cnn([C@@H]2O[C@H](CO)[C@@H](O)[C@H]2O)c(=O)[nH]1`, the “hERG current change (%, negative = inhibition) at 10uM” value stood at 12.7%.
To `CC(C)C[C@H](NC(=O)c1[nH]cnc1C(=O)N[C@@H](C)C(=O)OCc1ccccc1)C(=O)OC(C)(C)C` belongs 9.62%.
For `O=C(N/N=C/c1ccccc1Cl)c1ccncc1` the value was 4.51%; for `CC1(C)CC(=O)C/C(=N\NC(=O)C2C3CCCCC32)C1` (centres unmarked), 25.4%.
For `COCCCNC(=O)c1ccc(-n2nc(C(F)(F)F)cc2-c2cccs2)cc1` the value was -30.6%; for `CN1CCN(C(=O)C23CC4CC(C)(CC(C)(C4)C2)C3)CC1.Cl`, -26.3%.
`CCCCc1nc2n[nH]c(N)c2c2c1CCCC2`: the “hERG current change (%, negative = inhibition) at 10uM” value is -30.3%.
`Nc1nnc(SCC(=O)Nc2ccccc2N2CCOCC2)s1`: the “hERG current change (%, negative = inhibition) at 10uM” value stood at 3.88%.
In the case of `Cc1ccc(OCCC(=O)Nc2ccc(S(=O)(=O)Nc3nccs3)cc2)cc1`, the “hERG current change (%, negative = inhibition) at 10uM” value was found to be 4.21%.
For `Cc1ccc(-c2nc(C(=O)NCCCN(C)C)cc3c2[nH]c2ccccc23)cc1` the value was -27.8%; for `O=C(Cc1ccc(-n2c(=O)c3ccccc3n(CC(=O)Nc3ccc(F)cc3F)c2=O)cc1)NCc1ccco1`, 17.3%.
For `CN(C)N1C(N)=C(C#N)C(c2cccnc2)C2=C1CC(C)(C)CC2=O` (centres unmarked), the “hERG current change (%, negative = inhibition) at 10uM” value is on record as -19.4%.
To `CC1(C)Cc2c(C#N)c(N3CCN(C(=O)c4ccco4)CC3)nc(Cc3ccccc3)c2CO1` belongs -25.3%.
To `CC(=O)N=Nc1[nH]c(N)c2ccccc12` belongs 18.3%.
For `CCCS(=O)(=O)N1CCN=C1SCc1ccc(C)cc1` the value was -26.8%; for `COc1ccccc1CCC(=O)Nc1ccc2c(c1)CN(Cc1ccc(CO)o1)CC2`, -10.1%.
For the compound `NC(=O)C1CC12c1ccccc1-c1ccccc12` (centres unmarked), the “hERG current change (%, negative = inhibition) at 10uM” value is recorded as 16%.
As for `Cc1ccc(NS(=O)(=O)c2cc(C(=O)N3CCN(C)CC3)ccc2C)cc1`, the “hERG current change (%, negative = inhibition) at 10uM” value is listed as -18.1%.
For `CCOC(=O)c1ccc(NC(=O)CSc2n[nH]c(-c3ccncc3)n2)cc1` the value was 0.37%; for `CCOc1ccccc1Nc1ncnc2ccccc12.Cl`, -19.1%.
To `O=c1[nH]c(SCc2ccc(Cl)cc2)nc2ccccc12` belongs 3.49%; to `CCOc1ccc(-n2c(C)c(C(=O)O)c3cc(OC)ccc32)cc1`, 21.3%; to `Cc1cc(NC(=O)COc2ccccc2)ccc1Cl`, -2.25%.
To `O=C(CSCc1c(Cl)cccc1Cl)NCc1ccco1` belongs 4.4%.
For the compound `COc1ccc2c(C)cc(=O)[nH]c2c1`, the “hERG current change (%, negative = inhibition) at 10uM” value is reported as -6.25%.
As for `O=C(c1cc(COc2c(F)cccc2F)on1)N1CCN(C2CCCCC2)C(=O)C1`, the “hERG current change (%, negative = inhibition) at 10uM” value is listed as -17.5%.
Take `Cc1cc(C)cc(OCCNS(=O)(=O)c2cccs2)c1`: the “hERG current change (%, negative = inhibition) at 10uM” value was found to be 26.2%.
To `NC[C@H]1O[C@H](O[C@H]2[C@H](O)[C@@H](O[C@H]3O[C@H](CO)[C@@H](O)[C@H](N)[C@H]3O)[C@H](N)C[C@@H]2N)[C@H](N)C[C@@H]1O.O=S(=O)(O)O` belongs 4.47%; to `CSc1cccc(NC(=O)c2cc(S(=O)(=O)N3CCc4ccccc43)cn2C)c1`, -12.4%.
